Experimental data taken from PubChem BioAssay AID488969 (Vanderbilt High Throughput Screening Facility, 2010).
The full ranking holds about 110,000 compounds; the median of “z-score” is about -0.1, and the highest 2% start at about 2. Some of the results follow. Active and inactive are the calls of the source.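 The calls were made as follows: active = z-score in the third read window above 3 or below -3; inactive = the rest.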

target: Metabotropic glutamate receptor 8 (Rattus norvegicus) (UniProt P70579); experiment: mGluR8 Gi/Go-coupled signaling modulation – cell-based, rat, thallium flux, HTS, primary screen (AID 488969); details: HEK293 rat mGluR8, GIRK (G protein-gated inwardly rectifying potassium channel) thallium flux, FluoZin2; at 10 µM; stronger effect = higher value; submaximal glutamate (EC20) added with thallium
UniProt P70579, sequence (P70579 whole entry, looked up): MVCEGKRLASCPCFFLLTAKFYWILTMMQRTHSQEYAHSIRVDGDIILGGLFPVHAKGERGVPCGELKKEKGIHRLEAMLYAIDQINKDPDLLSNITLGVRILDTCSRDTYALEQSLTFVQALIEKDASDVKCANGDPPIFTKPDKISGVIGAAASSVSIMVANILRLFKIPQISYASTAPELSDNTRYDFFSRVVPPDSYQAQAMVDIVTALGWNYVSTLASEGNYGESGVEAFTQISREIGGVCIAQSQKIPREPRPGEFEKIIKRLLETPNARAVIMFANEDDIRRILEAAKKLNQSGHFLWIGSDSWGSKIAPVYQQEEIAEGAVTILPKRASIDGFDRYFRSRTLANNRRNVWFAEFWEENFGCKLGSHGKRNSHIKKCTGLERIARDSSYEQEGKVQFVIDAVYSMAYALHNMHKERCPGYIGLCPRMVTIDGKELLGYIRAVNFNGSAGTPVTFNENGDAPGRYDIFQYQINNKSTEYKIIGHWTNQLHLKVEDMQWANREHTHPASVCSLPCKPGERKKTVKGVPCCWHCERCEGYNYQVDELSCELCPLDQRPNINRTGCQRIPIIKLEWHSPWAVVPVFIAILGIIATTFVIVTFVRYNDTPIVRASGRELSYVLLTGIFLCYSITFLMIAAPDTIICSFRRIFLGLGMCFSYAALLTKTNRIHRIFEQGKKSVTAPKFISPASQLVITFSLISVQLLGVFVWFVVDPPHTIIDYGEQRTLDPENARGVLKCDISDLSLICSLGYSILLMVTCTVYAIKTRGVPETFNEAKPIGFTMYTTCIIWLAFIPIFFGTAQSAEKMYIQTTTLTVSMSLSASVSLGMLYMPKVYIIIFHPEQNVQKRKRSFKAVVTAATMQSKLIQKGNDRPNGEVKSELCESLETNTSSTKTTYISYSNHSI

Row | SMILES | z-score
1 | O=[N+]([O-])c1ccccc1NCc1ccc(Cl)cc1 | 0.0358
2 | COc1ccc(C(=O)COC(=O)[C@H](C)Nc2ccc(C(F)(F)F)cc2[N+](=O)[O-])c(OC)c1 | 0.408
3 | CCOC(=O)COc1ccc(S(=O)(=O)N2CCN(c3ccccc3F)CC2)cc1 | -0.0629
4 | CCOC(=O)c1ccc(S(=O)(=O)N2CCN(C(=O)CSc3nc4ccccc4o3)CC2)cc1 | -0.417
5 | O=C(NCCN1C(=O)C2C3C=CC(C3)C2C1=O)Nc1ccccc1 (configuration not stated) | 0.165
6 | Cc1cc(C(=O)N/N=C/C=C/c2ccccc2)c(C)o1 | -0.263
7 | Cc1ccc(C(C)C)c(OCC(=O)Nc2ccccc2N2CCN(C)CC2)c1 | 0.145
8 | CC(=O)NC(Cc1ccccc1)C(=O)O (configuration not stated) | -0.133
9 | COc1cccc(C2C(C(=O)c3ccc(C)o3)=C(O)C(=O)N2CCCN(C)C)c1 (configuration not stated) | -0.00888
10 | CN1CCC(N(C)C(=O)c2ccccc2Nc2ccc(SC(F)F)cc2)CC1 | -0.436
11 | CC(C)C(=O)Nc1cccc(C(=O)NCc2ccc(S(N)(=O)=O)cc2)c1 | -0.267
12 | CCOC(=O)C1CCN(C2CC(=O)N(c3ccc(OCC)cc3)C2=O)CC1 (configuration not stated) | -0.083
13 | O=c1oc2ccccc2nc1/C=C(O)/C=C/c1ccc(F)cc1 | -0.0634
14 | CCc1nc2ccccc2n1CC(=O)N1CCN(S(=O)(=O)c2cccc(C(F)(F)F)c2)CC1 | -0.0276
15 | COC(=O)c1nnn(CC(=O)Nc2cc(Cl)ccc2C)c1C(=O)OC | -0.484
16 | CC1S/C(=N/N=C/c2ccco2)NC1=O (configuration not stated) | -0.0698
17 | CCN=C1S/C(=C\c2ccc(OC)c(OCC)c2)C(=O)N1CC | 0.509
18 | CC(=O)c1ccc(NC(=O)N[C@@H](CC(C)C)C(=O)O)cc1 | 0.0309
19 | O=C(Nc1cccc(Cl)c1)OCc1cnc(Cl)s1 | -0.0303
20 | O=C(CCN1CCc2ccccc2C(O)(c2ccccc2)C1)c1ccc2c(c1)OCCO2 (configuration not stated) | 0.00375
21 | Cc1cc(C)c(NC(=O)C(C)Sc2nnc(-c3ccco3)n2-c2ccccc2)c(C)c1 (configuration not stated) | -0.439
22 | CC1(C)Cc2c(C#N)c(SCc3ccccc3)nc(N3CCOCC3)c2CO1 | 0.00848

Row | SMILES | z-score
23 | O=C(CSc1ncn[nH]1)Nc1ccc(S(=O)(=O)N2CCCC2)cc1 | 0.00256
24 | CCOc1ccccc1C1C(C#N)=C(N)Oc2cc(N)ccc21 (configuration not stated) | -1.11
25 | CC(=O)c1c(C)nc(-c2ccc(Cl)cc2Cl)n1O | 1.47
26 | CCC(c1nnnn1Cc1ccc2c(c1)OCO2)N1CCN(c2ccccc2)CC1 (configuration not stated) | -0.0847
27 | COc1ccc(N2CC(NC(=O)NC(C)(C)C)CC2=O)cc1 (configuration not stated) | -0.154
28 | Cc1ccc(S(=O)(=O)N2CCCCC2C(=O)NCc2ccco2)cc1 (configuration not stated) | 0.161
29 | CC(=O)NC(CCS(C)(=O)=O)C(=O)Nc1c(F)cccc1F (configuration not stated) | 0.442
30 | O=C(c1ccc(S(=O)(=O)c2cccc(Cl)c2)c([N+](=O)[O-])c1)N1CCN(Cc2ccccc2)CC1 | 0.264
31 | CCc1ccc(-c2csc(NC(=O)Oc3ccccc3)n2)cc1 | -0.119
32 | CC1(C)CC(=O)c2c(nn(-c3ccccc3)c2-c2ccncc2)C1 | -0.129
33 | Cn1c(=O)n(C)c2cc(NC(=O)CCl)ccc21 | 0.155
34 | CC(=NC1CCN(Cc2ccccc2)CC1)c1c(O)[nH]c(=O)[nH]c1=O | -0.0981
35 | Cc1ccccc1-c1nc(Cc2ccccc2)no1 | -0.00202
36 | O=C(NCCCCc1ccccc1)C1CC(c2ccccc2[N+](=O)[O-])=NO1 (configuration not stated) | -0.227
37 | CCc1cccc(CC)c1NC(=O)COC(=O)CC1c2ccccc2CCN1S(=O)(=O)c1ccccc1 (configuration not stated) | 0.484
38 | COC(=O)c1[nH]c2ccccc2c1NC(=O)CN1CC(C)OC(C)C1 (configuration not stated) | 0.195
39 | CC(C)(C)NC(=O)CSc1nncn1NCc1cccc2ccccc12 | -0.0771
40 | Cc1cc(C)n(-c2nc3sc4c(c3c3nnc(SCC(N)=O)n23)CC(C)(C)OC4)n1 | -0.198
41 | C=CCNC(=O)NC(=O)COC(=O)/C(C#N)=C/c1cc(C)n(CC(C)C)c1C | 0.00508
42 | CC(C)CC(=O)Nc1ccc(C(=O)Cn2nc(C(=O)O)c3ccccc3c2=O)cc1 | -0.623
43 | CCOc1ccc(N(C(C)C(=O)NCc2ccco2)S(C)(=O)=O)cc1 (configuration not stated) | -0.0829
44 | COCC(O)CSc1c([N+](=O)[O-])nc(C)n1Cc1ccc(OC)c([N+](=O)[O-])c1 (configuration not stated) | -0.318

Row | SMILES | z-score
45 | CCOc1ccccc1-n1c(SCC(=O)N2CCOCC2)nnc1-c1ccccn1 | 0.068
46 | COc1cccc(NC(=O)Cc2cccs2)c1 | 0.747
47 | CCC(C)NC(=O)COC(=O)c1cc([N+](=O)[O-])ccc1Sc1nc(C)cs1 (configuration not stated) | -0.0186
48 | CCOC(=O)c1ccccc1NC(=O)c1cccnc1 | 0.208
49 | O=C(COC(=O)c1ccc(Cl)c(S(=O)(=O)N2CCCCCC2)c1)Nc1ccccc1 | -0.272
50 | O=C(Nc1ccc(F)cc1)c1nc[nH]c1C(=O)Nc1ccccc1[N+](=O)[O-] | -0.105
51 | O=C(O)c1ccc(CN2C(=O)c3ccccc3S2(=O)=O)cc1 | 0.313
52 | CCOC(=O)CC1=C(C(=O)OCC)C(c2ccc(OC)cc2OC)C(C#N)=C(N)O1 (configuration not stated) | -0.324
53 | O=C(Nc1ccc(Cl)c(Cl)c1)c1csc(-c2ccccc2)n1 | -0.162
54 | CC(=O)Nc1ccc(NC(=O)CSc2nnc(-c3ccccc3)n2Cc2ccc3c(c2)OCO3)cc1 | -1.83
55 | Cn1c(=O)c2c(nc(N3CCCC3)n2CC(O)CO)n(C)c1=O (configuration not stated) | -0.206
56 | COC(=O)c1ccccc1OCC(=O)N1CCN(c2ccc(F)cc2)CC1 | -0.0501
57 | CC(NC(=O)N(Cc1ccccc1)Cc1ccc2c(c1)OCO2)(C(F)(F)F)C(F)(F)F | -0.711
58 | CCN1CCN(c2cc(C)c3cc(NC(=O)c4ccc(OC)c(OC)c4)ccc3n2)CC1 | 0.815
59 | COCCN(Cc1ccccc1)P(=O)(O)c1ccccc1OCC(=O)O | 0.0585
60 | O=C(CSc1nnc(-c2ccco2)n1Cc1ccccc1)NC(=O)NCc1ccccc1 | 0.18
61 | Cc1cc(C)cc(-n2nnnc2SCC(=O)N2CCOCC2)c1 | 0.0627
62 | COc1ccc(/C=N/Nc2nc(N3CCCC3)nc(N3CCCC3)n2)cc1 | -0.325
63 | CCOC(=O)Cn1c(=O)sc2ccccc21 | 1.69
64 | CSc1nnc(-c2cnccn2)n1Cc1ccccc1 | -0.236
65 | Cc1ccc(F)c(NC(=O)CCc2ccccc2)c1 | -0.0177
66 | Cc1ccc(S(=O)(=O)Nc2ccc(-c3nc4ccc(C)cc4s3)cc2)cc1 | -0.365

Row | SMILES | z-score
67 | CC(C)COc1ccc(-c2cc(C(=O)NN)[nH]n2)cc1 | -0.52
68 | C=CCSc1nnc(NC(=O)c2nc(SCC)ncc2Cl)s1 | 0.107
69 | CC1(C)CC(=O)C2=C(C1)N(CC1CCCO1)C(=O)C2(O)C(F)(F)F (configuration not stated) | -0.396
70 | Cc1ccc(-n2c(C)cc(C(=S)N3CCOCC3)c2C)cc1C | -0.271
71 | CCCCCC/C(=N\NS(C)(=O)=O)c1ccccc1 | -0.158
72 | CCOC(=O)N1CCC2(CC1)C(C#N)=C(N)OC1=C2C(=O)CC(C)(C)C1 | -0.0881
73 | O=C(c1ccccc1C(=O)N1CCN(c2ccc(F)cc2)CC1)N1CCN(c2ccc(F)cc2)CC1 | 0.00077
74 | CCOc1ccc(-n2c(SCC(=O)NCc3ccco3)nnc2-c2c[nH]c3ccccc23)cc1 | -0.692
75 | CCOc1ccc(CSC(CC(=O)O)C(=O)O)cc1 (configuration not stated) | 1.05
76 | CC(C)c1ccc(CN(C(=O)C2COc3ccccc3O2)C2CCS(=O)(=O)C2)cc1 (configuration not stated) | 0.706
77 | O=C(O)C1CC(c2ccccc2F)=NO1 (configuration not stated) | -0.289
78 | O=C(CSc1nnc(COc2cccc3cccnc23)o1)c1ccc(F)cc1 | 1.63
79 | CSc1cccc(NC(=O)CSc2ccc(C)cc2)c1 | -0.00724
80 | C=CCn1c(=S)[nH]c2nc3c(cc2c1=O)CCCC3 | active: 4.15
81 | Cc1cc(C)n2ncc(C(=O)Nc3ccc4c(c3)OCO4)c2n1 | -0.266
82 | CCOCCCNC(=O)CS(=O)(=O)Cc1nc(-c2cccc(OC)c2)oc1C | 0.653
83 | COc1ccc(N2CCN(C(=O)Nc3ccc(S(=O)(=O)N(C)C)cc3)CC2)cc1 | 0.0221
84 | CCC(C)(C)n1nnnc1C(c1ccncc1)N1CCC(C)CC1 (configuration not stated) | 1.03
85 | CCOC(=O)c1cc(-c2ccc(C)cc2)n(CC(=O)NCc2ccco2)c1C | -0.118
86 | Cc1cc([N+](=O)[O-])c2[nH]c(C(=O)N/N=C/c3ccccc3C(=O)O)c(-c3ccccc3)c2c1 | -0.455
87 | Cc1nc2cc(C(F)(F)F)ccc2n1C1CCN(C(=O)N2CCOCC2)CC1 | -0.127
88 | N#C/C(=C/c1ccc(-c2ccc(Br)cc2)o1)C(=O)NC1CCCCC1 | -0.159

Row | SMILES | z-score
89 | Cc1ccc(NC(=S)Nc2ncccc2C)c(C)c1 | 0.118
90 | CCCCn1c(=O)c(CCC(=O)OCC(=O)Nc2cc(Cl)ccc2OC)nc2ccccc21 | 0.0025
91 | CCOC(=O)c1cc2nc(Nc3ccc(OC)cc3)sc2s1 | 0.969
92 | Nc1ccccc1-c1nnc(SCc2ccccc2Cl)[nH]c1=O | -0.409
93 | CSc1cccc(NC(=O)CSc2ccccc2)c1 | 1.09
94 | O=C(Nc1ccc(Cl)cc1)N1CCC(c2nc(-c3ccccc3Cl)no2)CC1 | -0.0366
95 | COc1ccccc1-c1c(NC(=O)c2ccco2)n(-c2ccccc2)nc(C)c1=O | -0.192
96 | C=CCn1c(O)c(N=NC(=O)OC(C)(C)C)c2ccccc21 | 1.14
97 | COc1ccc(-c2cc(C(F)(F)F)nc(-n3cc(Cl)cn3)n2)cc1 | 0.102
98 | CC(C)Oc1ccccc1OCCN(C)C | 0.85
99 | COc1cc(-c2nnn(CC#N)n2)ccc1OCc1ccccc1 | -0.365
100 | COc1ccccc1Nc1nc(-c2ccc([N+](=O)[O-])cc2)nc2ccccc12 | -0.0715
101 | Cc1ccc(NC(=O)c2cc(-c3cccs3)on2)cc1 | 0.503
102 | CCOc1ccccc1Cn1c(=O)oc2ccc(C)cc21 | -0.516
103 | Cc1ccc2oc(=O)c3cnn(CC(=O)NCCCOC(C)C)c3c2c1 | -0.229
104 | COc1c(/C=N/Nc2nc(N3CCCCC3)nc(N3CCCCC3)n2)cccc1[N+](=O)[O-] | -0.0609
105 | O=C(Nc1ccccc1)N1CCCc2ccccc21 | -0.0768
106 | CCOc1ccc(C(CC(=O)O)NC(=O)C2c3ccccc3Oc3ccccc32)cc1 (configuration not stated) | -0.19
107 | COc1cc2c(cc1OC)C(C(=O)Nc1ccc3c(c1)OCCO3)C1c3ccccc3CCN1C2=O (configuration not stated) | 0.206
